Results: PubChem BioAssay AID1508623 (National Center for Advancing Translational Sciences (NCATS), 2021)
About 450 (0.94%) of roughly 48,000 compounds were called active. About 19% were inconclusive and are not listed. Calls follow the shape of the dose curve; as a rule, active = well fitted inhibition curve with a large enough effect; inconclusive = small, poorly fitted or top-dose-only effect; inactive = no such curve, though single readings can be large or run the other way. Some of the results follow.

assay: Primary qHTS for Identification of Small Molecule Inhibitors of Huntingtin Promoter Activity; conditions: HEK293 HTT promoter firefly luciferase reporter (activity 0% = vehicle and -100% = no light), 24 h; series mostly up to 57.5 µM; activity change, negative = inhibition: at the top concentration; also: nearly all actives have a fitted effect of over 50% in size
How it was run: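 Firefly luciferase signal from promoter-reporter HEK293 cells was scaled between vehicle (0%) and zero RLU (-100%). Compounds were tested at final concentrations of up to 57.5 uM over 24 h at 37 degrees C. PTC124 at 50 uM final served as control inhibitor.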

Activity change, negative = inhibition, inactive:
Cc1cccc(C)c1NC(=O)N1CCC(C(N)=O)(N2CCCCC2)CC1 0%, O=C(Nc1ccc(F)cc1F)c1cc2ccc3cccnc3c2[nH]1 20.5%, Cc1ccccc1Nc1cc(C(=O)NC2CCC(C)CC2)c2ccccc2n1 (stereo not drawn) 57.9%, CCOC(=O)c1ccc(NC(=O)c2c(NCc3cccc(OC)c3)sc3c2CCC3)cc1 6.98%, Cn1cc(S(=O)(=O)N2CCCCCC2)cc1C(=O)Nc1ccccc1F -23.7%, COc1cccc(C(=O)NCC(c2ccc(N(C)C)cc2)N2CCc3ccccc32)c1OC (stereo not drawn) 1.15%, COc1ccc2oc(-c3ccc(C)c(NC(=O)c4sc5ccccc5c4Cl)c3)nc2c1 -1.89%, COc1ccc(N2CCN(c3oc(-c4ccccc4C)nc3S(=O)(=O)c3ccccc3)CC2)cc1 -5.65%, Cc1cccc(OCC(=O)Nc2c(C(=O)N3CCN(c4ccccc4)CC3)oc3ccccc23)c1 -10.3%, COc1cc(NC(=O)Cn2nc(Cc3cccnc3)c3ccccc3c2=O)cc(OC)c1OC -3.02%, CCc1nc2ccccc2n1CCCCOc1ccc(Cl)cc1 -5.56%, CC(NCCc1ccc(O)cc1)C(O)c1ccc(O)cc1 (stereo not drawn) -1.31%, CCCCN(CCCC)S(=O)(=O)c1ccc(C(=O)Nc2sc3c(c2C(N)=O)CCN(CC)C3)cc1 -27%, CCOc1ccccc1CNC(=O)CCCn1nc(C)c2sc3ccccc3c2c1=O 12.1%, O=C(Nc1ccc(-c2cn3cccnc3n2)cc1)c1ccccc1F 37.6%, Cc1ccc(OCc2ccc(-c3nc(C#N)c(N4CCN(c5cccc(Cl)c5)CC4)o3)o2)cc1 -9.07%, Cc1nc2c([nH]1)c(=O)n(C)c(=O)n2Cc1ccco1 12.9%, CC1=C(C(=O)Nc2cccc(Cl)c2)C2(CCCCCC2)OC1=O -30.2%, COc1ccccc1NC(=O)Cn1c(=O)n(CCc2ccccc2)c(=O)c2sc3ccccc3c21 6.59%, CCC1CN(C(=O)N2CCC(C(=O)NCCCc3ccccc3)CC2)c2ccccc2O1 (stereo not drawn) -25%, CCN1CCN(c2cc(C)c3cc(NC(=O)c4cc(Br)ccc4Cl)ccc3n2)CC1 -29.3%, COCCCNC(=O)CSc1nc(-c2ccc(OC)cc2)[nH]c1-c1ccc(OC)cc1 -16.4%, COc1ccc2oc(=O)cc(CN3CCN(c4ccccc4OC)CC3)c2c1 -9.37%, O=C(NCc1ccccc1Cl)c1ccc2nc(Cc3ccccc3)oc2c1 -9.15%, CCC(=O)N1c2ccccc2CC1C(=O)NCCN1CCN(c2cccc(Cl)c2)CC1 (stereo not drawn) -3.8%, CC(=O)N1CCCc2cc(S(=O)(=O)N3CCC(C(=O)NCc4ccccc4Cl)CC3)ccc21 -23.4%, COc1ccc(C(=O)Nc2cc3cc(Cl)ccc3oc2=O)cc1OC 12.3%, CCN(CC)C(=O)c1sc2c(c1C)c(=O)n(-c1ccc(OC)cc1OC)c(=O)n2Cc1cc(C)ccc1C 0%, COc1cccc(-c2nn(C)c3sc(C(=O)NCc4ccc(C)cc4)cc23)c1 -22.9%, CC(C)(O)CC(=O)NCCn1ccc2ncnc(Nc3ccc(Oc4cccc(C(F)(F)F)c4)c(Cl)c3)c21 -17.5%, CC(=O)Nc1ccccc1OCc1cc(=O)n2c(C)csc2n1 -1.04%, Cc1ccc(-c2nc(C)c(CCNC(=O)C(=O)Nc3ccc(C)c(Cl)c3)s2)cc1 7.87%, CCC1(C)CC(=O)NC1=O (stereo not drawn), CCN(CCCNC(=O)CSc1cc(=O)n(C)c2cc(Cl)ccc12)c1ccccc1 -20.3%, Cc1cc(=O)n2nc(N3CCC(C(=O)NCc4ccccc4F)CC3)sc2n1 -12.1%, CN1CCN(CCNC(=O)c2cnn(-c3cccc(Cl)c3)c2C2CCN(C(=O)OC(C)(C)C)CC2)CC1 -9.48%, COc1ccc2nc(SCc3ncc(C)c(OC)c3C)[nH]c2c1 15.4%, Cc1ccc(NC(=O)CSc2ncc3c(n2)-c2ccccc2N(C)S3(=O)=O)c(Cl)c1 -28.6%, CCC(CC)C(=O)Nc1cccc(-c2nc3ncccn3c2C)c1 -0.495%, CCc1ccc(CNC(=O)Cn2nc(C)c3c(C)n(-c4ccc(C)cc4)nc3c2=O)cc1 -5.54%, COCCN(Cc1ccco1)C(=O)c1cc2c(Cl)nc3ccc(C)cc3c2s1 0.513%, CCN(CC)CCCNC(=O)CSc1nc2nc(C)c(Cc3ccccc3C)c(C)n2n1 -7.75%, COc1ccc(NC(=O)Cn2nc(SC)c(S(=O)(=O)c3ccc(C)cc3)c2N)cc1OC -21.5%, COc1ccc(-n2nc(C(=O)NCCCOC(C)C)c3c4ccccc4n(C)c3c2=O)cc1 -11.2%, O=C(O)c1ccc2oc(=O)n(Cc3ccccc3)c2c1 8.02%, O=C(Nc1c(Cl)cccc1Cl)c1cccc2c1C(=O)N(C1CCCCC1)C2 -2.47%, CCC(=O)N1CCc2cc(Br)cc(S(=O)(=O)CCC(=O)N(C)c3cccc(C)c3)c21 -2.18%, COc1ccc(CNc2nc3c(-c4ccc(C)cc4)nnn3c3ccccc23)cc1 30.8%, CCOC(=O)c1cc2c(=O)n3ccccc3nc2n(CCCOC)c1=NC(=O)c1c(-c2ccccc2Cl)noc1C -25.6%, Cc1nc2nc(C)c(NS(=O)(=O)c3ccc(F)cc3)c(=O)n2[nH]1 -3.58%, O=C(Cn1cnc(S(=O)(=O)N2CCCC2)c1)Nc1cccc(F)c1 -20.6%, CN(C(=O)Cn1c(=O)n(CCC(=O)NCc2ccc3c(c2)OCO3)c(=O)c2sccc21)c1ccccc1 -6.33%, Cc1ccc(-n2ncc(C(=O)N3CCN(C4CCCCC4)CC3)c2C2CCN(C(=O)OC(C)(C)C)CC2)cc1C -4.46%, Cc1ccc(NC(=O)c2sc3nc4n(c(=O)c3c2C)CCCCC4)c(Br)c1 1.84%, Cc1cccc(N2CCN(C(=O)CCCn3c(=O)[nH]c4ccsc4c3=O)CC2)c1C -10.6%, CCCCCCc1c(C)c2c(cc(C)c3c(C)c(C)oc32)oc1=O -22.7%, O=C1CC(c2nc3ccccc3n2CCC2CCCCC2)CN1c1ccccc1Cl (stereo not drawn) -20.2%, Oc1c(C(c2ccccc2F)N2CCC3(CC2)OCCO3)sc2nc(-c3ccco3)nn12 (stereo not drawn) 1.99%, CCCCN(C(=O)Nc1ccc(Cl)cc1)C1CCN(C(C)=O)CC1 12.8%, O=C(NC1CCCCC1)c1ccc(CSc2nc3ccncc3n2Cc2ccccc2)cc1 -21.4%, Cc1ccc2onc(CC(=O)N3CCN(c4ccc(Cl)cc4)CC3)c2c1 -17.7%, O=C(NCCc1ccccc1)c1ccc(Cn2c(=O)c3cccn3c3cccnc32)cc1 -9.3%, COc1ccc(OC)c(CNC(=O)c2ccc(Sc3ccc(Cl)cc3)c(NC(C)=O)c2)c1 -28.2%, Cc1ccc(NC(=O)Cn2c(=O)n(CCCC(=O)NCc3ccc4c(c3)OCO4)c(=O)c3ccccc32)cc1 -8.79%, CCOc1cc(C2C(C(=O)Nc3ccccc3)=C(C)Nc3ncnn32)cc(Br)c1O (stereo not drawn) -6.22%, Cc1cc2c(cc1S(=O)(=O)N(CCO)Cc1ccccc1)OCC(=O)N2 8.29%, O=C(NC(Cc1cc(=O)[nH]c2ccccc12)C(=O)O)c1ccc(Cl)cc1 (stereo not drawn), CCc1cccc(CC)c1N(COC)C(=O)Cn1c(CC)nc2ccccc21 18.5%, Cc1ccc(C)c(NC(=O)CCS(=O)(=O)c2cccc3nsnc23)c1 -15.5%, Cc1ccc(NC(=O)Cn2c(CCC(=O)O)ccc2-c2cccs2)cc1Cl -20.6%, COC(=O)c1cccc(NC(=O)N(C)CCc2c(C)nn(C)c2C)c1 0%, C[N+](C)(C)CCOC(N)=O 1.81%, CCCCn1cc(S(=O)(=O)c2ccc(OCC)cc2)c(=O)c2cc(OC)c(OC)cc21 -21.6%, CCc1ccc(-n2nc3ccc(NC(=O)c4cc(Cl)c(OC)c(Cl)c4)cc3n2)cc1 2.8%, CCOc1ccc(CNC(=O)Cn2nc(C)n3cccc3c2=O)cc1 8.55%, Cc1ccc(CNC(=O)Cn2c(=O)n(Cc3ccccc3)c(=O)c3c2c2cc(C)ccc2n3C)cc1 -9%, CCOc1ccc(N2CC(C)Cn3c2nc2c3c(=O)n(CC(=O)O)c(=O)n2C)cc1 (stereo not drawn) 2.81%, COc1cc(N2C(=O)CSC23C(=O)N(C)c2ccccc23)cc(OC)c1OC (stereo not drawn) -5.42%, COCCN1Cc2cccc(C(=O)Nc3ccc(C)c(F)c3)c2C1=O -24.6%, Cc1cc(C)cc(NC(=O)C(=O)NCC(c2ccc3c(c2)OCO3)N2CCOCC2)c1 (stereo not drawn) -2.08%, COc1ccc(Nc2nc3c(S(=O)(=O)c4ccccc4)nnn3c3ccc(Cl)cc23)c(OC)c1 -3.94%, Fc1ccc(-c2cc(-c3nc(-c4ccccc4)no3)[nH]n2)cc1 26.6%, CC(C)c1ccc(NC(=O)c2cn(C3CCCCC3)c(=O)c3c2c2ccccc2n3C)cc1 -6.5%, CC(C)(C)NC[C@H](O)COc1cccc2c1CCCC2=O -4.44%, Cc1ccccc1NC(=O)N1CCc2cc(S(=O)(=O)N3CCC(C)CC3)ccc21 -10.8%, Cc1ccccc1CNC(=O)c1cccc(NC(=O)c2nsc3ccccc23)c1 2.89%, COc1ccc(-c2nc(C)c(CCNC(=O)c3ccc(F)c(F)c3)s2)cc1 -16.7%, COc1ccccc1C1=NS(=O)(=O)N(C)C(C(=O)Nc2cc(OC)c(OC)c(OC)c2)=C1 2.06%, CC(C)Cn1cc(NC(=O)NCc2ccccc2)c2ccccc2c1=O -9.81%, Cc1ccc2c(c1)c1c(c(=O)n(-c3cccc(Cl)c3)c(=O)n1CC(=O)c1ccc(Cl)cc1)n2C -4.25%, CCCCn1c(=N)c(S(=O)(=O)c2ccccc2)cc2c(=O)n3cccc(C)c3nc21 -1.44%, Cc1c(CC(=O)N2CCCCC2)c(=O)oc2cc3occ(C(C)(C)C)c3cc12 -4.14%, COc1ccc(-c2cn3cccnc3n2)cc1NC(=O)COc1ccccc1 -1.07%, COCCNc1ncnc2c1cnn2-c1cc(Cl)ccc1C -21.3%, Cc1cc(C)c2c(n1)SCC(=O)N2CC(=O)Nc1ccc(C)c(C)c1 -23%, CN1CCN(C(c2ccc(Cl)cc2Cl)c2sc3nc(-c4ccco4)nn3c2O)CC1 (stereo not drawn) -8.85%, Cn1nc(C(=O)NCc2cccc(Cl)c2)c2c1-c1ccccc1SC2 -9.72%, CCC(=O)N1c2ccccc2CC1C(=O)NCCc1ccccc1Cl (stereo not drawn) -11.4%
